# Experimental data reported in PMC4336329 (PLoS ONE, 2015).
# The whole screen tested about 310,000 compounds, of which about 14,000 (4.5%) showed an effect of 50% or more. Effects have a minus sign here. The list shows a part of the results.
# Target: human ether-à-go-go-related gene (hERG) potassium channel (human, UniProt Q12809)
# Experiment: primary screen, population patch clamp on CHO cells stably expressing hERG
# 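Also: peak tail current of the secondary pulse compared with the same well before compound.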
# Chain of human ether-à-go-go-related gene (hERG) potassium channel (Q12809 whole entry, looked up): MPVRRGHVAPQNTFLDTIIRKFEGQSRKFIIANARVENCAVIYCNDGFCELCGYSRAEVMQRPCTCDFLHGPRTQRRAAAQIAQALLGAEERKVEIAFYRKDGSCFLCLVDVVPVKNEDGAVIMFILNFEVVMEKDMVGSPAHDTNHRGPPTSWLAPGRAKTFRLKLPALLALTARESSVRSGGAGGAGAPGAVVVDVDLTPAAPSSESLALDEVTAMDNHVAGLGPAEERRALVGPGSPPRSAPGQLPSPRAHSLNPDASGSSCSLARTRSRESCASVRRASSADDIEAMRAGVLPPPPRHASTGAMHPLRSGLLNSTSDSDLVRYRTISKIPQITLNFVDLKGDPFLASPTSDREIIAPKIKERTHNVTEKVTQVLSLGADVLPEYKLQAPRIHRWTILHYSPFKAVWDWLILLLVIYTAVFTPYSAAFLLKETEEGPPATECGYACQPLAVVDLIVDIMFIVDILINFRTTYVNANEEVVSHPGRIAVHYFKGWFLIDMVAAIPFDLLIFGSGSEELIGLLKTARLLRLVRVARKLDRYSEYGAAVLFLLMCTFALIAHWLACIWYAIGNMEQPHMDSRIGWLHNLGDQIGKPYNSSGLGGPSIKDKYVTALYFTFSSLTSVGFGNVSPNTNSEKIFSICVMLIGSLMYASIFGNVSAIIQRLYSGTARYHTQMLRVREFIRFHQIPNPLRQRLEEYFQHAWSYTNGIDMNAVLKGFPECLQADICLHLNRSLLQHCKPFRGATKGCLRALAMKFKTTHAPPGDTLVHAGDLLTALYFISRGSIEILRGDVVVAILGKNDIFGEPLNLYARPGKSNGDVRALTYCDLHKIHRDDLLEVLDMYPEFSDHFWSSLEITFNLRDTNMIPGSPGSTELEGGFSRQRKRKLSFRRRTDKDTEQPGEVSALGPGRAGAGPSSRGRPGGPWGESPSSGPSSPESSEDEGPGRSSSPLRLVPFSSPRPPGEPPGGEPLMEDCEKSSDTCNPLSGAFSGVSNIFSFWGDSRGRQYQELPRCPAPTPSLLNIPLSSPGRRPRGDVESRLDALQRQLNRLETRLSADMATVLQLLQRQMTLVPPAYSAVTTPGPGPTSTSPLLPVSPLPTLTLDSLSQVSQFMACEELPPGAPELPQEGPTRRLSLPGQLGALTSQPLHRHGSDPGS
row,Compound,"hERG current change (%, negative = inhibition) at 10uM [%]"
1,CCOc1ccc(NS(=O)(=O)c2ccc(C(=O)NC3CCN(Cc4ccccc4)CC3)cc2)cc1,3.07
2,Cc1ccc(CNC(=O)CN2C(=O)c3ccccc3S2(=O)=O)cc1,-14.1
3,Nn1c(Cc2cccc3ccccc23)nnc1SCc1ccccc1Cl,-9.47
4,O=C(C(=O)N1CCN(c2ccccc2)CC1)c1cn(CC(=O)N2CCCCCC2)c2ccccc12,-6.07
5,CCCn1c(SCC(=O)Nc2nnc(C)s2)nnc1C1CC1,6.04
6,COC(=O)c1ccc(/C=C/C(=O)OCC(=O)Nc2ncc(Cl)cc2Cl)cc1,-19.9
7,O=C(O)c1cccc(CSc2n[nH]c(-c3ccc(Cl)cc3Cl)n2)c1,2.18
8,CCn1nc(C)c(CNC(=O)Nc2ccc3c(c2)OCO3)c1C,0.832
9,COCCNC(=O)c1ccc(Cn2c(=S)[nH]c3cc4c(cc3c2=O)OCO4)cc1,16.5
10,O=C1c2ccccc2C(=O)N1n1cccc1,8.7
11,CCCCc1c(O)nc(SCC(=O)N2CCCCC2)n(-c2ccccc2C)c1=O,12.4
12,Cc1ccc(CNC(=O)CN2CCN(Cc3ccc(Cl)cc3)C2=O)cc1,-20.9
13,O=C(N/N=C1\CC2CC=CC12)c1ccc(Br)cc1 (stereo not drawn),9.05
14,COc1ccccc1NC(=O)C(C)OC(=O)C1CC(=O)N(c2ccc3c(c2)OCCO3)C1 (stereo not drawn),4.97
15,Cl.OCCN1CCN(CC/C=C2/c3ccccc3Sc3ccc(Cl)cc32)CC1,-68.8
16,Cc1ccc2[nH]c3c(c2c1)CN(C(=O)CN1CCCCC1)CC3,-31.8
17,COc1cccc(OC)c1C(=O)NC(C)CCc1ccccc1 (stereo not drawn),-19.1
18,CC(=O)c1c(O)c2cccc3c2n(c1=O)CCC3,13.7
19,CCOC(=O)c1sc(NC(=O)c2cc(-c3ccc(C)cc3)nc3ccccc23)c(C#N)c1C,5.31
20,CCC(=O)N(Cc1cc(=O)[nH]c2ccccc12)c1ccc(OC)cc1,-25.1
21,COc1cccc(CC(=O)Nc2ccc3c(c2)CCC3)c1,10.1
22,O=C(COC(=O)c1ccccc1C(=O)c1ccccc1)Nc1ccc(SC(F)F)cc1,-2.06

row,Compound,"hERG current change (%, negative = inhibition) at 10uM [%]"
1,COc1ccc(NC(=O)CC(=O)Nc2ccc(OC)cc2)cc1,-3.55
2,CCn1c2ccccc2c2nnc(SCC(=O)c3ccccc3)nc21,-2.15
3,O=c1oc2cc([N+](=O)[O-])ccc2nc1/C=C(\O)c1cccc(Br)c1,4.15
4,COc1ccc(NC(=O)c2ccccc2)c([N+](=O)[O-])c1,1.48
5,N#CCCn1c(SCC(=O)Nc2ccc(N3CCOCC3)cc2)nc2ccccc21,-7.68
6,O=[N+]([O-])c1c(NCCO)cc(N2CCN(Cc3ccc4c(c3)OCO4)CC2)c2nonc12,-27.6
7,COc1ccccc1NC(=O)C1CCCCN1S(=O)(=O)c1ccc(F)cc1 (stereo not drawn),-27.9
8,Cc1ccccc1OCc1nnc(SCC(=O)N2CCc3ccccc32)n1C,-0.724
9,Cc1ccc(S(=O)(=O)NCC(=O)N(CC(=O)NCc2ccco2)Cc2ccc(F)cc2)cc1,5.19
10,C/C(=N\NC(=O)c1ccccc1)c1ccc(N2CCOCC2)cc1,13.1
11,Cc1onc(-c2c(Cl)cccc2Cl)c1/C(N)=N/OC(=O)C1CC1,13.6
12,Cc1cccn2c(=O)c(/C=C(\C#N)C(N)=O)c(N3CCN(Cc4ccc5c(c4)OCO5)CC3)nc12,-39.7
13,COc1ccc(C(C(=O)NC(C)(C)C)N(Cc2ccco2)C(=O)CCC(=O)Nc2ccccn2)cc1 (stereo not drawn),1.22
14,Cc1c(C(=O)Nc2ccc3c(c2)OCCO3)oc2ccc(Br)cc12,0.46
15,CCC(=O)Nc1ccc(NC(=O)CSc2nnnn2-c2ccc(OC)cc2)cc1,19.1
16,CCC1Oc2ccccc2N(CC(=O)NCCCN2CCCCC2C)C1=O (stereo not drawn),-3.17
17,CCOC(=O)[C@H]1O[C@@H]1C(=O)N[C@@H](CC(C)C)C(=O)NCCC(C)C,27.7
18,CCCCCN(C(=O)CCC(=O)OC(C)C(=O)Nc1cccc(C#N)c1)c1c(N)n(CCCC)c(=O)[nH]c1=O (stereo not drawn),17.5
19,Cc1nn(C)c(C)c1CN(Cc1nc(-c2ccc(F)cc2F)oc1C)C1CC1,-6.87
20,Cc1cccc(N(Cc2ccccc2)C(=O)CN2C(=O)NC3(CCCC3)C2=O)c1,-14.4
21,Cc1ccc(Nc2ncnc(N)n2)cc1C,14.8
22,Cc1ccc(CN(Cc2cccnc2)C(=S)Nc2cc(Cl)ccc2C)cc1,3.89

row,Compound,"hERG current change (%, negative = inhibition) at 10uM [%]"
1,O=S(=O)(c1ccc(NCc2ccc(F)cc2)nc1)N1CCCC1,-6.22
2,Fc1ccc(-n2c(Cc3ccccc3)nnc2SCc2nc(-c3ccc(Cl)cc3)no2)cc1,-1.6
3,COc1ccc(CNc2ccc(C)c(C)c2)c(OC)c1OC.O=C(O)C(=O)O,2.1
4,Cc1cc(C)cc(N(C(C)C(=O)NCCC2=CCCCC2)S(C)(=O)=O)c1 (stereo not drawn),-17.5
5,Cc1onc(-c2ccccc2Cl)c1C(=O)N1CCC(C)CC1,4
6,CC(=O)N1CCC2(CC1)CC(=O)c1cc(OCC(=O)NCc3ccco3)ccc1O2,-19.3
7,COc1ccc(OC)c(NC(=O)c2ccc(-c3cccs3)cc2)c1,-6.69
8,CC(=O)OC(C(=O)NC1CCCCC1)c1ccccc1Cl (stereo not drawn),-2.88
9,CCSc1nc2n(n1)C(c1cccc(F)c1)C1=C(CCCC1=O)N2 (stereo not drawn),-7.28
10,N#Cc1c(-c2ccc(F)cc2)cc(C2CC2)nc1SCC(=O)c1cccs1,17.6
11,CC(C)Oc1ccc2c(=O)c(-c3ccccc3)coc2c1,20.3
12,C[C@@H]1C(=O)OC[C@H]1NC(=O)OCc1ccccc1,5.27
13,COc1ccc(-c2n[nH]c(=S)n2-c2ccc(C)cc2C)cc1,19.5
14,O=c1[nH]c(N/N=C/c2cc3c(cc2[N+](=O)[O-])OCO3)nc2ccccc12,-0.00362
15,C/C(=N/NC(=O)c1cc(-c2ccc(Cl)s2)[nH]n1)c1ccco1,6.58
16,CCOc1ccc(-c2nnn(CC(=O)NCCc3c[nH]c4ccccc34)n2)cc1,1.45
17,CCOc1cccc2cc(-c3nnc(NCc4ccc5c(c4)OCO5)s3)c(=O)oc12,-4.36
18,COc1cccc(NC(=S)NCCCN2CCOCC2)c1,16.7
19,O=[N+]([O-])c1ccc(N2CCCCC2)cc1,-16.5
20,O=C(CN(c1cccc([N+](=O)[O-])c1)S(=O)(=O)c1ccccc1)NCc1ccccc1,-68.5
21,CN(C)CCCN1C(=O)c2oc3ccccc3c(=O)c2C1c1cccs1 (stereo not drawn),5.5
22,CCOC(=O)C(O)(c1ccc(N(CC)C(=O)OC)cc1)C(F)(F)F (stereo not drawn),3.39

row,Compound,"hERG current change (%, negative = inhibition) at 10uM [%]"
1,Cc1nnc(SCC(=O)c2c[nH]c3ccccc23)n1C1CC1,-17
2,CCCC(=O)Nc1ccc2c(c1)nc(CCN1CCCCC1)n2C,-4.96
3,COc1ccc(CC(=O)Oc2ccc(F)cc2)cc1,10.5
4,COC(=O)c1sccc1NC(=O)CSc1cccc(Cl)c1Cl,3.23
5,CC1=CSC2=NC(=O)/C(=C\c3cccn3-c3ccccc3)C(=N)N12,2.24
6,CC(=O)CCc1ccc(Oc2nc(-c3cccnc3)nc3ccccc23)cc1,5.75
7,CC1(C)CC(=O)C=C(NNC(=O)c2ccccc2O)C1,-2.31
8,O=C(NC1CCCCC1)C(c1cccnc1)N(C(=O)c1csnn1)C1CCCC1 (stereo not drawn),9.2
9,C=CCOc1ccccc1CN1CCCC(CCC(=O)N(C)CCc2ccccn2)C1 (stereo not drawn),-33.6
10,CC(C)(C)NCc1cc(Cl)ccc1OCc1ccccc1F.Cl,-43.3
11,O=C(NC(=S)NCc1ccccc1)c1ccccc1Br,12.2
12,Cc1ccccc1NC(=O)COC(=O)c1ccc(S(=O)(=O)N2CCCC2)cc1,4.28
13,CN(CC(=O)Nc1cccnc1Cl)S(=O)(=O)c1ccc(Cl)cc1,-9.46
14,COc1ccc2sc(N(CCN(C)C)C(=O)/C=C/c3cccs3)nc2c1.Cl,-33.2
15,N#C/C(=C/c1cccc(O)c1)C(=O)NCc1ccc(Cl)cc1,31
16,Cc1ccc(Cn2ccc(NC(=O)c3cc(C4CC4)on3)n2)cc1,-13.4
17,COCc1nnc(NC(=O)CCSc2ccccc2)s1,3.59
18,CCOC(=O)C(C(=O)OCC)N(C#N)c1nc(C)cc(C)n1,-4.66
19,O=C(Nc1ccccc1N1CCN(C(=O)c2ccc(Cl)cc2)CC1)c1ccc(Br)cc1,-41.5
20,COc1ccc2c(CC(=O)OCC(=O)Nc3cccc(C)c3)coc2c1,14.3
21,Cc1cccc(S(=O)(=O)NCCC(=O)OCC(=O)Nc2ccc(C#N)cc2)c1,-31.8
